# Reference: paper PMC13083723 (Patterns, 2026)
# About 190 (3.5%) of roughly 5,400 compounds showed an effect of 50% or more. The list shows a part of the results.
# System: Vero-E6
# Assay: primary screen, phospholipidosis by LipidTOX staining; higher = more effect of the substance
# Settings: 10 µM
# Method: To measure drug-induced PLD in Vero-E6 cells, we used the HCS LipidTOX Red Phospholipidosis Detection Reagent (Invitrogen, #H34351), which is non-toxic to cell growth and remains well retained after aldehyde fixation. In this setup, compounds (at 10 μM concentration) and controls (amiodarone: 10 μM concentration; DMSO: 0.1 v/v %) were added to clear-bottom, 384-well plates (PhenoPlate 384-well, black, optically clear flat bottom, tissue-culture treated, Revvity #6057302) using the Echo Liquid Handler (Labcyte).
row,Structure (SMILES),result_ITMP
1,C[C@H]1CCC/C=C/[C@@H]2C[C@H](O)C[C@H]2[C@H](O)/C=C/C(=O)O1,-2.38%
2,C=CC[C@]1(O)CC[C@H]2[C@@H]3CCC4=CCCC[C@@H]4[C@H]3CC[C@@]21C,0.46%
3,C=CC[C@]1(O)CC[C@H]2[C@@H]3CCC4=CC(=O)CCC4=C3C=C[C@@]21C,1.92%
4,CC[C@H]1CN2CCC1C[C@@H]2[C@@H](O)c1ccnc2ccc(OC)cc12 (stereo partly drawn),6.8%
5,C#C[C@]1(O)CC[C@H]2[C@@H]3CCC4=CC(=O)CC[C@]4(C)[C@H]3CC[C@@]21C,-7.32%
6,Oc1ccc2c3c1O[C@H]1c4oc5ccccc5c4C[C@@]4(O)[C@@H](C2)N(CC2CC2)CC[C@]314,6.87%
7,CCCOC(C(=O)OC1CCN(C)CC1)(c1ccccc1)c1ccccc1,63.8%
8,CC[C@H]1[C@@H]2C[C@H]3[C@@H]4N(C)c5ccccc5[C@]45C[C@@H]([C@H]2[C@H]5O)N3[C@@H]1O,-3.79%
9,Cc1onc(O)c1C[C@H](N)C(=O)O [R4A_0004356_001 / SPE_K92493880],-0.72%
10,CC(=O)O[C@H]1C[C@H](O[C@H]2[C@@H](O)C[C@H](O[C@H]3[C@@H](O)C[C@H](O[C@H]4CC[C@@]5(C)[C@H](CC[C@@H]6[C@@H]5C[C@@H](O)[C@]5(C)[C@@H](C7=CC(=O)OC7)CC[C@]65O)C4)O[C@@H]3C)O[C@@H]2C)O[C@H](C)[C@H]1O[C@@H]1O[C@H](CO)[C@@H](O)[C@H](O)[C@H]1O,-8.98%
11,COc1cc2c(cc1OC)[C@@]13CCN4CC5=CCO[C@H]6CC(=O)N2[C@H]1[C@H]6[C@H]5C[C@H]43,1.12%
12,CN1[C@@H]2CC[C@H]1C[C@@H](OC1c3ccccc3CCc3ccccc31)C2,45.5%
13,C[C@@H](N)C(=O)N[C@@H](CO)C(=O)N[C@H](C(=O)N[C@H](C(=O)N[C@H](C(=O)N[C@@H](CC(N)=O)C(=O)N[C@@H](Cc1ccc(O)cc1)C(=O)N[C@H](C(N)=O)[C@@H](C)O)[C@@H](C)O)[C@@H](C)O)[C@@H](C)O,0.21%
14,C[C@@H]1CN([C@H]2CC[C@](C#N)(c3ccc(F)cc3)CC2)CC[C@]1(C(=O)O)c1ccccc1,-9.01%
15,CN(CCc1ccc(Cl)c(Cl)c1)CCN1CCCC1,51.3%
16,CCN1C[C@]2(COC(=O)c3ccccc3N3C(=O)C[C@H](C)C3=O)CC[C@H](OC)[C@@]34[C@@H]5C[C@H]6[C@H](OC)[C@@H]5[C@](O)(C[C@@H]6OC)[C@@](O)([C@@H](OC)[C@H]23)[C@@H]14,0.37%
17,Oc1ccc2c3c1O[C@H]1c4[nH]c5ccccc5c4C[C@@]4(O)[C@@H](C2)N(CC2CC2)CC[C@]314,37.4%
18,CO[C@H]1[C@H](O)[C@H](O[C@H]2CC[C@@]3(C=O)[C@H](CC[C@@H]4[C@@H]3CC[C@]3(C)[C@@H](C5=CC(=O)OC5)CC[C@]43O)C2)O[C@@H](C)[C@@H]1O,-16.8%
19,CC1(N2CCC(n3c([C@@H]4CCCNC4)nc4ccccc43)CC2)CCCCCCC1,46%
20,CC(=O)OC[C@]12CCC(C)=C[C@H]1O[C@@H]1[C@H](O)[C@@H](OC(C)=O)[C@@]2(C)[C@]12CO2,-25.8%
21,COC(=O)C[C@](O)(CCC(C)(C)O)C(=O)O[C@@H]1C(OC)=C[C@]23CCCN2CCc2cc4c(cc2[C@H]13)OCO4,-10.1%
22,CN1C[C@H](CNC(=O)OCc2ccccc2)C[C@@H]2c3cccc4c3c(cn4C)C[C@H]21,61.8%
23,C[N@+]1(CC2CC2)CC[C@]23c4c5ccc(O)c4O[C@H]2C(=O)CC[C@@]3(O)[C@H]1C5,0.23%
24,CN1[C@@H]2CC[C@H]1C[C@@H](OC(=O)c1cc(Cl)cc(Cl)c1)C2,9.65%
